{"source": "patent US20220267422A1", "binders": {"B1": {"name": "Human monoclonal antibody 3D5 (antibody, human IgG1, kappa, V domains shown)", "VH": "EVQLVESGGGLVQPGGSLRLSCAASGFTFSDYAMSWVRQAPGKGLEWVSRISSSGSSKYYADSVKGRFTISRDNSKNTLYLQMNSLRAEDTAVYYCAKWGSYGYGLVYYFDVWGQGTLVTVSS", "VL": "[sequence of about 100 residues not given]"}}, "biological_target": "doppel (Prnd) recombinant protein immobilized on the SPR sensor chip", "assay": "SPR, BIAcore T100, recombinant protein immobilized on chip", "data": [{"binder": "B1", "values": [{"measurement": "Kd", "value": 53.8, "unit": "nM"}]}]}
